Test results reported in PubChem BioAssay AID485294 (National Center for Advancing Translational Sciences (NCATS), 2010).
Out of some 370,000 compounds screened, about 150 (0.041%) were called active. Inconclusive means that the source gave no clear call. Such entries were picked first, then a sample of the others. Calls follow the shape of the dose curve; as a rule, active = well fitted inhibition curve with a large enough effect; inconclusive = small, poorly fitted or top-dose-only effect; inactive = flat fitted curve, though single readings scatter. Potencies of inconclusive entries are left out as doubtful fits.

molecular target: Beta-lactamase (Escherichia coli (strain K12)) (UniProt P00811); experiment: qHTS Inhibitors of AmpC Beta-Lactamase (assay with detergent); details: AmpC hydrolysis of nitrocefin, absorbance 480 nm, 0.01% Triton; activity change, negative = inhibition: at 114 µM (top of the series); also: nearly all actives have a fitted effect of over 25% in size;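 as to activity change, negative = inhibition: 0% = no-compound wells and -100% = no-enzyme wells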
Sequence of UniProt P00811 (P00811 whole entry, looked up): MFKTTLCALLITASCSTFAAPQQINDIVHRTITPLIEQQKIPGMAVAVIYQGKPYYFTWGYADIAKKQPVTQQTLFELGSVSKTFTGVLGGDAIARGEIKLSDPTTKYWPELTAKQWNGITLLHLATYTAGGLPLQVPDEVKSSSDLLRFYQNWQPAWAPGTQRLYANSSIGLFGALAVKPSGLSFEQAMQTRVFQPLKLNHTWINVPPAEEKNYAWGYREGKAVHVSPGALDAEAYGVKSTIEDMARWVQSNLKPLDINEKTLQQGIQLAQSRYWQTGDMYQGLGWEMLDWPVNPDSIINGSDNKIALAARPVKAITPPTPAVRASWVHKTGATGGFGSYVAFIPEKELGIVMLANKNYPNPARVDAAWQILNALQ
Procedure, shortened: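 AmpC (5.3 nM in the dispensed reagent) in 20 mM phosphate pH 7.0 with 0.01% (detergent screen) or 0.0001% Triton X-100 was preincubated with compounds for 15 min at room temperature. Nitrocefin was then added from an 800 uM solution, and hydrolysis was followed at 480 nm.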
Potency is read from the fitted curve at half-maximal effect; tags tell the direction and shape of the fitted curve.

| SMILES | Potency | activity change, negative = inhibition |
| --- | --- | --- |
| COc1ccc(S(=O)(=O)N2CCC(C(=O)N3CCCC3)CC2)cc1 | inconclusive [inhibitor, full curve, poor fit] | – |
| CC(CCC(=O)O)C1CC[C@@]2(C)C3C(=O)CC4C(C)(C)C(O)CC[C@]4(C)C3C(=O)C[C@]12C (some centres undefined) | inconclusive [inhibitor, full curve, poor fit] | – |
| CC1(C)NC(=O)N(CCOCCOc2c(Cl)cc(Cl)cc2Cl)C1=O | inconclusive [inhibitor, full curve, poor fit] | – |
| N#CC1=C(N)Oc2n[nH]c(CSc3ccccc3)c2C12C(=O)Nc1ccccc12 (centres undefined) | inconclusive [inhibitor, single point] | – |
| Cc1ccc(-n2c(SCC(=O)Nc3cccc(Cl)c3)nc3n[nH]c(C)c3c2=N)cc1 | – | inactive: 1.97% |
| Cc1ccc(N2CC(NC(=O)c3ccc4c(c3)OCO4)CC2=O)cc1 (centres undefined) | – | inactive: -2.55% |
| CCCOC(=O)c1cccc(Nc2nc(-c3cccnc3)nc3ccccc23)c1 | inconclusive [inhibitor, full curve] | – |
| C/C(=N\Nc1nc2ccccc2[nH]1)c1ccc(C)o1 | inconclusive [inhibitor, partial curve, poor fit] | – |
| O=C(CN1CCCC1)Nc1ccc(Br)cc1 | inconclusive [inhibitor, full curve] | – |
| Cc1ccc(N2C(=O)c3ccc(C(=O)NCCN4CCOCC4)cc3C2=O)cc1 | inconclusive [inhibitor, partial curve, poor fit] | – |
| CN1CCN(CCCN2c3ccccc3Sc3ccc(C(F)(F)F)cc32)CC1 | inactive | – |
| COc1ccc(-c2ccc(NS(=O)(=O)c3cccc([N+](=O)[O-])c3)cc2)nn1 | inconclusive [inhibitor, full curve, poor fit] | – |
| O=C(O)Cn1ncn(-c2ccc(OC(F)(F)F)cc2)c1=O | inconclusive [inhibitor, single point] | – |
| Cc1cc(NC(=O)c2cc(C)on2)no1 | inconclusive [inhibitor, full curve, poor fit] | – |
| O=C(O)c1sc2cc(C(F)(F)F)cnc2c1-c1ccccn1 | inconclusive [inhibitor, full curve, poor fit] | – |
| CC1CCCC(C)N1/N=C/c1ccccc1F (centres undefined) | inconclusive [inhibitor, full curve, poor fit] | – |
| COc1ccc(CCNC(=O)C2CC(c3ccc([N+](=O)[O-])cc3)=NO2)cc1 (centres undefined) | – | inactive: -1.08% |
| Cc1cc(C(=O)NC(C)c2ccc3c(c2)OCO3)cs1 (centres undefined) | inconclusive [inhibitor, full curve, poor fit] | – |
| O=C(CSc1nnc(-c2cccc(S(=O)(=O)N3CCCC3)c2)n1-c1ccccc1)Nc1ccc(C(=O)O)cc1 | inconclusive [inhibitor, full curve, poor fit] | – |
| COc1ccccc1NC1=NCCS1 | – | inactive: -7.02% |

| SMILES | Potency | activity change, negative = inhibition |
| --- | --- | --- |
| O=C(Nn1cnnc1)c1cc([N+](=O)[O-])cc([N+](=O)[O-])c1 | inconclusive [inhibitor, full curve, poor fit] | – |
| O=C(C1CCCN(S(=O)(=O)c2cccs2)C1)N1CCc2ccccc2C1 (centres undefined) | inconclusive [inhibitor, single point] | – |
| CCOc1ccc(/C(O)=C2/C(=O)C(=O)N(c3nc(C)c(C)s3)C2c2ccco2)cc1 (centres undefined) | inconclusive [inhibitor, partial curve, poor fit] | – |
| COc1ccc(CNC(=O)c2ccc(SC)cc2OC)cc1 | inconclusive [inhibitor, partial curve] | – |
| CN(C)CCN1C(=O)C(=O)/C(=C(/O)c2ccc(OCc3ccccc3)cc2)C1c1ccncc1 (centres undefined) | inconclusive [inhibitor, full curve, poor fit] | – |
| Cc1ccc(-c2nnc(SCC(=O)Nc3ccc4c(c3)OCCO4)n2N)cc1 | inconclusive [inhibitor, partial curve, poor fit] | – |
| O=C(c1nn(-c2ccccc2)c(=O)c2ccccc12)N1CCN(c2ccccn2)CC1 | inconclusive [inhibitor, full curve] | – |
| COc1ccc(OC)c(-n2c(SCC(C)=O)nnc2-c2cccc(S(=O)(=O)N(C)C)c2)c1 | inconclusive [inhibitor, full curve, poor fit] | – |
| CCOC(=O)C1CCN(C(=O)c2cc3c(=O)n4ccccc4nc3s2)CC1 | – | inactive: 1.19% |
| CC(C)c1ccc(/C=C(\c2nc3ccccc3[nH]2)S(=O)(=O)c2ccccc2)cc1 | inconclusive [inhibitor, single point] | – |
| Cc1ccccc1OCC(=O)N/N=C/c1ccco1 | inconclusive [inhibitor, full curve, poor fit] | – |
| Cc1cc(C)cc(-c2nnc(SCC(=O)NCc3cccs3)o2)c1 | inconclusive [inhibitor, full curve] | – |
| COc1ccc(C(=O)N/N=C/C(Br)=C/c2ccccc2)cc1 | inconclusive [inhibitor, single point] | – |
| CC(=O)Oc1ccc(C(=O)Nc2cccc(C(=O)Nc3ccccc3C(=O)O)c2)cc1 | inconclusive [inhibitor, single point] | – |
| CCCNC(=O)c1cc(-c2ccc(Br)cc2)on1 | inconclusive [inhibitor, full curve, poor fit] | – |
| CCOC(=O)n1c(SCC(N)=O)nc2ccccc21 | inconclusive [inhibitor, full curve, poor fit] | – |
| CCC(CC)c1nnc(NC(=O)c2cccc(S(=O)(=O)N3CCc4ccccc43)c2)s1 | inconclusive [inhibitor, full curve, poor fit] | – |
| O=C(CC(Nc1ccccc1)C(=O)O)c1ccccc1 (centres undefined) | inconclusive [inhibitor, full curve, poor fit] | – |
| Cc1ccc(S(=O)(=O)Nc2ncnc3sc(C)c(C)c23)cc1 | inconclusive [inhibitor, partial curve, poor fit] | – |
